Experimental data reported in PubChem BioAssay AID588342 (National Center for Advancing Translational Sciences (NCATS), 2011).
About 25,000 (6.9%) of roughly 360,000 compounds were called active. Inconclusive means that the source gave no clear call. Such entries were picked first, then a sample of the others. The call rests on the fitted dose curve; in most records, active means well fitted inhibition curve with a large enough effect; inconclusive means small, poorly fitted or top-dose-only effect; inactive means flat fitted curve, though single readings scatter. Where the call is inconclusive, the potency comes from a doubtful curve fit.

The compounds below were run against Luciferin 4-monooxygenase (Photinus pyralis) (UniProt P08659) (assay: qHTS profiling assay for firefly luciferase inhibitor/activator using purifed enzyme and Km concentrations of substrates (counterscreen for miR-21 project)). Conditions: purified FLuc, luminescence inhibition; series mostly up to 57.5 µM.
How it was run: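 Purified P. pyralis luciferase, 10 nM final, with Km-level 10 uM D-luciferin and 10 uM ATP in 50 mM Tris acetate pH 7.5, 10 mM Mg acetate, 0.01% Tween-20, 0.05% BSA; 6-point qHTS titration about 60 µM downward; luminescence read.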
Further: nearly all actives have a fitted effect of over 55% in size.
Potency means the concentration at half of the fitted maximal effect; tags describe the fitted curve by direction and shape.

Sequence of UniProt P08659 (P08659 whole entry, looked up): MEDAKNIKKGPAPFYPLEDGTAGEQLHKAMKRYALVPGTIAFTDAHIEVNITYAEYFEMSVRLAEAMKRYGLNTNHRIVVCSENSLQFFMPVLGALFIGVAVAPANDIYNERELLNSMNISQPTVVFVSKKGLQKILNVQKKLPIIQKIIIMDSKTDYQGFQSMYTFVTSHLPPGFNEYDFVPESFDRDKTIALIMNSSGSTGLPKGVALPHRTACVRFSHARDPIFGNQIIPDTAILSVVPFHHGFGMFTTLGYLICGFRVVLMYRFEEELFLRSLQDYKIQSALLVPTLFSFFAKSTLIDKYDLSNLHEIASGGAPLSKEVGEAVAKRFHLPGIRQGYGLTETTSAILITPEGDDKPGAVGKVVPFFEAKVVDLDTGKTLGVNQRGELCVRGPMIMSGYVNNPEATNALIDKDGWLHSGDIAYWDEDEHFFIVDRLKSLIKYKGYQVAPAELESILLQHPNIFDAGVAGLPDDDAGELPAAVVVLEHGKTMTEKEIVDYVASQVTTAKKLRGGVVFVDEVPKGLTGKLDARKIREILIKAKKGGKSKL

SMILES	Potency
COCCCNC(=O)CN1C(=O)/C(=C/c2ccccc2)Sc2ccccc21	inconclusive: 37.9 µM [inhibitor, partial curve, poor fit]
CC(C)c1ccc(NC(=O)N2CCOCC2)cc1	inconclusive: 23.9 µM [inhibitor, partial curve]
CC(C)c1ccc(NC(=O)C2CCCN2S(=O)(=O)c2ccc3nc(-c4ccccc4)[nH]c3c2)cc1 (stereo not drawn)	inactive
CCc1cc(=O)[nH]c(SCc2nc(-c3cccc(Cl)c3)no2)n1	inconclusive: 16.9 µM [inhibitor, partial curve]
O=C(Nc1ccc(Cl)cc1)c1ccc(-n2cnnc2)cc1	inactive
O=C(Nc1ccc2c(c1)OCCO2)N1CCN(c2ccccc2)CC1	inconclusive: 23.9 µM [inhibitor, partial curve]
O=C(OCC(=O)N1CCCC1=O)c1ccc(F)c(S(=O)(=O)N2CCOCC2)c1	inactive
CCOC(=O)C1(CC2CCCCO2)CCN(C(=O)Nc2ccccc2)CC1 (stereo not drawn)	inconclusive: 26.9 µM [inhibitor, partial curve, poor fit]
CCOC(=O)Cc1csc2nc(-c3ccccc3)nn12	inactive
O=C(CSc1nnnn1C1CCCC1)Nc1ccc2c(c1)OCCO2	inconclusive: 33.8 µM [inhibitor, partial curve, poor fit]
CCC(=O)NC(=S)Nc1ccc(OC)cc1OC	inconclusive: 37.9 µM [inhibitor, single point]
CC(C)n1cnc2c(Nc3cccc(Cl)c3)nc(NCCCO)nc21	inconclusive: 37.9 µM [inhibitor, partial curve, poor fit]
O=C(CNC(=O)c1ccc2c(c1)OCCO2)N/N=C/c1cccc(Br)c1	inconclusive: 37.9 µM [inhibitor, partial curve, poor fit]
COC(=O)c1noc(C)c1-c1ccnn1C(=O)c1ccc(C)cc1	inconclusive: 23.9 µM [inhibitor, partial curve, poor fit]
COc1cccc(Nc2nc3ccccc3nc2NS(=O)(=O)c2cccs2)c1	inconclusive: 37.9 µM [inhibitor, single point]
Clc1cccc(-c2nc3nc4ccccc4nc3n2Cc2ccco2)c1	inconclusive: 21.3 µM [inhibitor, partial curve, poor fit]
NS(=O)(=O)c1ccc(CCNC(=O)c2cc(-c3ccc(Br)cc3)nc3ccccc23)cc1	inconclusive: 23.9 µM [inhibitor, partial curve, poor fit]
COc1ccc2c(c1)-c1nc(/N=C/c3cccc(OC)c3O)sc1CC2	inconclusive: 15.1 µM [inhibitor, partial curve, poor fit]
C#CCOc1ccc(Cl)cc1/C=C1/C(=O)ON=C1C	inconclusive: 16.9 µM [inhibitor, partial curve, poor fit]
CCS(=O)(=O)c1ccc2oc(Nc3ccc(OC)cc3)nc2c1	inconclusive: 37.9 µM [inhibitor, partial curve, poor fit]
Fc1ccc(-c2nc3ccccn3c2NCc2ccc3c(c2)OCO3)cc1	inconclusive: 21.3 µM [inhibitor, single point]
COc1ccccc1N1CCN(C(=O)CSc2ncnc3c2cnn3-c2ccc(C)c(C)c2)CC1	active: 8.49 µM
Cc1ccc(O)c(N=Cc2cc(Cc3ccccc3)cc([N+](=O)[O-])c2O)c1	inconclusive: 26.9 µM [inhibitor, single point]

SMILES	Potency
Cc1ccc(C(=O)NC2CCN(CC(=O)Nc3cccc([N+](=O)[O-])c3)CC2)cc1	inconclusive: 26.9 µM [inhibitor, single point]
CC(Sc1nc(-c2ccccc2)cc(C(F)(F)F)n1)C(=O)O (stereo not drawn)	inconclusive: 23.9 µM [inhibitor, partial curve, poor fit]
COc1ccccc1NC(=O)Nc1nc(CC(=O)Nc2cc(F)ccc2F)cs1	inconclusive: 23.9 µM [inhibitor, single point]
O=C(CSc1nc2ccccc2s1)NCCOc1ccccc1	inconclusive: 30.1 µM [inhibitor, partial curve, poor fit]
COc1ccc(C(=O)Nc2nnc(S(=O)(=O)N(C)c3ccc(C)cc3)s2)cc1	inconclusive: 19 µM [inhibitor, partial curve]
CCOc1ccc(NC(=O)c2cc3ccccc3cc2O)cc1	active: 0.757 µM
O=C(Nc1cccnc1)c1cccc(-c2cc3ccccc3oc2=O)c1	inconclusive: 16.9 µM [inhibitor, partial curve, poor fit]
Cc1ccc(NC(=O)CSc2nc3c(sc4ccccc43)c(=O)n2CCCC(=O)NC2CCCC2)cc1C	inactive
CC(C)COc1ccc(C(=O)Nc2nnc(S(=O)(=O)N(C)Cc3ccco3)s2)cc1	inconclusive: 10.7 µM [inhibitor, partial curve, poor fit]
Cc1ccc(CNc2ccc(N3C(=O)CC(C)C3=O)cc2[N+](=O)[O-])cc1 (stereo not drawn)	inconclusive: 26.9 µM [inhibitor, partial curve, poor fit]
CC12CCC(C(=O)Nc3nccs3)(OC1=O)C2(C)C (stereo not drawn)	inactive
Cc1ccc(-c2nc(C#N)c(N3CCC(C(N)=O)CC3)o2)cc1	inconclusive: 37.9 µM [inhibitor, partial curve, poor fit]
CCc1cccc(NC(c2ccccc2)c2nnc(-c3ccccc3F)o2)c1 (stereo not drawn)	inconclusive: 19 µM [inhibitor, partial curve]
CCOC(=O)c1cnn(-c2nc(C)cc(C)n2)c1N	inconclusive: 26.9 µM [inhibitor, partial curve, poor fit]
Nc1c(C(=O)Nc2ccc3c(c2)OCCO3)nnn1Cc1ccc(Cl)cc1	inconclusive: 2.39 µM [inhibitor, partial curve]
O=C(N/N=C\c1ccc(Cl)s1)c1ccc(Cn2cccn2)o1	inconclusive: 21.3 µM [inhibitor, single point]
C=CCNc1nc(NC(C)(C)CO)nc(OCC)n1	inactive
O=C(Nc1nc(COc2ccccc2)cs1)c1ccccc1F	active: 26.9 µM
COc1cn(-c2ccccc2)nc1C(=O)Nc1ccccc1	active: 13.5 µM
CC1(C)CC(=O)C(=Cc2cn(-c3ccccc3)nc2-c2ccc(Cl)cc2)C(=O)C1	inconclusive: 13.5 µM [inhibitor, partial curve]
Cc1ccc(C(=O)n2nc(C)c(S(=O)(=O)N3CCOCC3)c2C)cc1C	inactive
Cc1ccc2nc(/N=C(\N)NC(=O)NC3CCCCC3)nc(C)c2c1	inconclusive: 26.9 µM [inhibitor, single point]
CC(C)Cn1cc(C(=O)NCC2CCCO2)c2c3ccccc3n(C)c2c1=O (stereo not drawn)	inconclusive: 19 µM [inhibitor, partial curve]

SMILES	Potency
COc1ccc(Br)cc1C(=O)Nc1ccc(Cc2ccncc2)cc1	inconclusive: 37.9 µM [inhibitor, partial curve, poor fit]
Cc1ccc(NC(=O)c2nnn(CC(=O)Nc3ccc(C)c(Cl)c3)c2N)c(C)c1	inactive
COc1ccc(-c2cc(C(=O)Nc3cc(Cl)ccc3OC)no2)cc1	inactive
Cc1cc(C)c(NC(=O)CNC(=O)COC(=O)Cc2cccs2)c(C)c1	inactive
Clc1ccc(-c2nc3n(n2)Cc2ccccc2-3)cc1	active: 0.536 µM
Cc1cc(C)c2oc(-c3ccc(C)c(NC(=O)/C=C/c4ccco4)c3)nc2c1	active: 21.3 µM
CCN1CCN(C(c2ccc(F)cc2)c2nnnn2Cc2ccc3c(c2)OCO3)CC1 (stereo not drawn)	inconclusive: 0.0067 µM [inhibitor, partial curve, poor fit]
COc1ccccc1NCC(=O)c1ccc(Cl)cc1	active: 16.9 µM
O=C(CCN1C(=O)c2ccncc2C1=O)Nc1ccc2c(c1)OCCO2	inactive
CC(C)C(=O)Nc1cccc(NC(=O)c2ccc([N+](=O)[O-])cc2Cl)c1	inconclusive: 21.3 µM [inhibitor, partial curve, poor fit]
COc1ccc(Cn2c(CO)cnc2SCc2cccc(C)c2)cc1	inconclusive: 37.9 µM [inhibitor, partial curve, poor fit]
Nc1nccc(/C=C/c2c(F)cccc2Cl)n1	active: 23.9 µM
Cc1cccc(OCC(=O)Nc2cccc(C(=O)Nc3ccccc3C(=O)O)c2)c1	inconclusive: 23.9 µM [inhibitor, single point]
COC(=O)C(=O)/C=C(\O)c1ccc(C)cc1	inconclusive: 15.1 µM [inhibitor, partial curve]
CCC(Oc1ccccc1)C(=O)Nc1cc(C)on1 (stereo not drawn)	inconclusive: 19 µM [inhibitor, partial curve, poor fit]
COc1ccc(NC(=O)Cc2c(F)cccc2Cl)cc1	inconclusive: 19 µM [inhibitor, partial curve]
Cc1ccc(-n2ncc(-c3nn[nH]n3)c2N)cc1	inconclusive: 23.9 µM [inhibitor, single point]
COc1ccc(-c2csc(-c3cccs3)n2)cc1OC	active: 23.9 µM
COC(=O)CCC/C=C1/SCC(NC(=O)c2ccccc2)C1=O (stereo not drawn)	inconclusive: 26.9 µM [inhibitor, partial curve, poor fit]
CS(=O)(=O)c1ccc(-c2nnn(CC(=O)Nc3ccc4c(c3)OCCO4)n2)cc1	inactive
O=c1c(-c2ccccc2)c(O)c2cccc3c2n1CCC3	inconclusive: 7.57 µM [inhibitor, partial curve, poor fit]
COc1ccc(-n2cnc3sc4c(c3c2=O)CCCC4)cc1	inconclusive: 19 µM [inhibitor, partial curve, poor fit]
